# Measured values from PubChem BioAssay AID624296 (National Center for Advancing Translational Sciences (NCATS), 2012).
# About 9,900 (2.8%) of roughly 350,000 compounds were called active. The inconclusive results got no clear call from the source; some entries with a clear call stand among them for comparison. The call rests on the fitted dose curve; in most records, active means well fitted activation curve with a large enough effect; inconclusive means small, poorly fitted or top-dose-only effect; inactive means no such curve, though single readings can be large or run the other way. Potencies of inconclusive entries are left out as doubtful fits.
# Test: A quantitative high throughput screen for small molecules that induce DNA re-replication in MCF 10a normal breast cells. Further: nearly all actives have a fitted effect of over 50% in size.
# Settings: MCF 10A DNA re-replication, Hoechst nuclear intensity, 48 h; series mostly up to 46.1 µM
# Potency means the concentration at half of the fitted maximal effect; tags describe the fitted curve by direction and shape.
row,Compound,Potency
1,O=C(Cc1ccccc1F)Nc1ccc2c(c1)CCC2,inactive
2,O=C(c1ccccc1Br)N1N=C(c2ccccc2)CC1c1ccccc1F (stereo not given),"inconclusive [activator, single point]"
3,O=C(COC(=O)CNC(=O)c1ccccc1Cl)Nc1cc(C(F)(F)F)ccc1Cl,active: 14.6 µM
4,C=CCN(c1ccccc1)S(=O)(=O)c1ccc(Cl)c(C(=O)OCC(=O)c2[nH]c(C)c(C(C)=O)c2C)c1,"inconclusive [activator, single point]"
5,CCn1c(CSc2nc(C)cc(C)n2)nnc1SCC(=O)Nc1nc(-c2ccccc2)cs1,inactive
6,CN(C(=O)CSc1ccc(S(=O)(=O)N2CCCCC2)cn1)c1ccccc1,"inconclusive [activator, single point]"
7,O=C(CSc1nc2[nH]ncc2c(=O)n1-c1ccc(Cl)c(Cl)c1)NCc1ccccc1Cl,"inconclusive [activator, single point]"
8,CSC1=NC(=O)/C(=C\c2cccc3ccccc23)S1,active: 14.6 µM
9,CCOC(=O)c1c(CN2CCN(CCO)CC2)n(-c2ccccc2)c2cc(Br)c(O)cc12,"inconclusive [activator, partial curve, poor fit]"
10,Cc1ccc2c(Cl)cc(Cl)c(OCC(=O)N3CCOCC3)c2n1,inactive
11,C=C(C)[C@@H]1CC=C(CN2CCC(N3CCC(C(=O)N4CCCC4)CC3)CC2)CC1,"inconclusive [activator, single point]"
12,Cc1cc(SC#N)cc(C)c1NC(=O)CCl,"inconclusive [activator, partial curve, poor fit]"
13,Cc1cc(C(F)(F)F)nc(SCCN2CCCCC2)c1C#N,inactive
14,Cc1cc(=S)nc(-c2ccccn2)[nH]1,inactive
15,Cc1cc(C(=O)NNC(=S)NCc2ccccc2)cs1,"inconclusive [activator, partial curve, poor fit]"
16,CC(=O)c1ccc(OCC(O)CN2CCCC(C)C2)cc1 (stereo not given),inactive
17,O=C1c2ccccc2S(=O)(=O)c2cc(C(=O)N3CCC(O)CC3)ccc21,"inconclusive [activator, partial curve, poor fit]"
18,COc1ccc(NC(=O)CNC(=O)Cn2c(C)cc3ccccc3c2=O)c(OC)c1,"inconclusive [activator, full curve, poor fit]"
19,COc1ccc(NC(C)=O)cc1NC(=O)c1cccc(S(=O)(=O)N2CCc3ccccc32)c1,inactive
20,COc1ccc(C(=O)OCc2c(-c3ccccc3)ncc3ccccc23)cc1,active: 16.4 µM
